# ± gives the standard deviation. Whole data set: some 6,600 sequences, median “pre-steady-state target cleavage rate” near 0.07, cut for the highest 2% near 0.72. This is a selection; strong and weak results do not stand in their true shares.
# Test system: MIWI (PIWIL1) piRISC loaded with Kctd7 piRNA (30 nt)
# Experiment: pre-steady-state target cleavage rate (min^-1); MIWI and MILI are mouse PIWI proteins and EfPiwi is from a freshwater sponge; tags in brackets are library labels; higher = faster piRNA-guided slicing of the target
# Settings: guide: Kctd7 piRNA 5'p-UGUUAAUCUCUCAGAGAAGGUGACAGUGAU; auxiliary factor: 500 nM mouse GTSF1
# Method: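 Cleave-'n-Seq: a library of target RNAs (target site embedded in constant flanks, ACAGCATTCCGCGTTAGTGATATCCG... 5' flank; DNA-blocked outside the site) at 0.1 nM was incubated with 1 nM active mouse MILI or MIWI piRISC (synthetic 5'-monophosphorylated piRNA guide) with or without 500 nM mouse GTSF1 at 33 °C for 1 min to 16 h. Uncleaved targets were sequenced and normalised to non-target controls, and the pooled three trials were fitted to a burst-and-steady-state model to give the pre-steady-state cleavage rate (min^-1; k3 is constrained to at most 1e-4). Sequence is the target site only; target names encode pairing extent (gX:gY) and contiguous / 1-mismatch / 2-mismatch / bulge geometry. Fits with R² ≤ 0 are excluded.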
row,Sequence,pre-steady-state target cleavage rate
1,UAGUGACAGUCCUUCUCUGAGACAAUAACA,< 0.0001
2,AACACUGUCACCUUGUCUGAGAGAUUAACA,0.611 ± 0.088
3,UACACUGUCACCUUCUCUGAGGAGAUUAACA,0.00908 ± 0.0056
4,UAGUGACACACCUUCACUGAGAGAUUAACA,0.372 ± 0.036
5,UAGUCUGUCACCUUCUCUGAGAAGAUUAACA,0.0551 ± 0.0094
6,UAGUGAGUCUCCUUCUGUGAGAGAUUAACA,0.261 ± 0.024
7,UUCACUGACACCUUCUCUGAGAGAUAAACA,0.214 ± 0.034
8,AUCACUGUGACCUUCUCUGACAGAUUAACA,0.328 ± 0.027
9,UACACUGUCACCAUCUCUGAGAGAUUAUGA,0.0408 ± 0.015
10,UAGACUGUCACCUUCUCUGGGAGAUUAACA,0.515 ± 0.022
11,AUCACUGUCAACCUUCUCUGAGAGAUUAACA,0.269 ± 0.021
12,UAGUGACAGUGGAUCUCUGAGAGAUUAACC [g2:g17:cont:t1C],< 0.0001
13,UAGUGAGUCUGCUUCUCUGAGAGAUUAACA,0.185 ± 0.015
14,UAGUGACACACCUUCUCUCAGAGAUAAACA,0.0134 ± 0.0058
15,UAGACUGUCACCUUCUCAGAGAGAUUAUGA,0.0418 ± 0.01
16,UAGUGACAGACCUUCUCCGAGAGAUUAACA,0.0535 ± 0.013
17,UAGUCUGACACGUUCUCUGAGAGAUUAACA,0.512 ± 0.046
18,UAGUGACUCACCUUCUCUGAGAGAUUCAACA,0.283 ± 0.047
19,UAGUGAGUCACCUUCUCUGAGAGUAUAACA,0.229 ± 0.046
20,UAGUGACACACCUACUCUGAGAGAUUAUCA,0.0862 ± 0.015
21,UAGUCUGUCACGAACUCUGAGAGAUUAACA,0.0819 ± 0.01
22,UAGACUGACACGUUCUCUGAGAGAUUAACA,0.601 ± 0.037
23,UAGUGUGUCACCUUCACUGAGAGUUUAACA,0.124 ± 0.021
24,UAGUGACUCACCUUCUCUGAGAGUUUUACA,0.0914 ± 0.019

row,Sequence,pre-steady-state target cleavage rate
1,UUCACUGAGACCUUCUCUGAGAGAUAUUGA,0.0142 ± 0.0048
2,AUCACUCUCACCUUCUCUGAGAGAUAAACA,0.235 ± 0.04
3,UAGUGACAGACGUUCUCUGAGAGAUUAAGA,0.00397 ± 0.0038
4,UAGUGACUCACCUUCUCUGAGAGUAUUAACA,0.22 ± 0.028
5,UAGUGUGUCACCUUCUCUGAGAGAUAUAGA,0.0321 ± 0.013
6,UAGUGUGUGACCUACUCUGAGAGAUUAACA,0.468 ± 0.033
7,UAGACUGUCACCUUCACUGAGAGAUUUUGA,0.108 ± 0.026
8,UAGUGACUCACCUUCUCUGAGACUAUAUGA,< 0.0001
9,UUCACUGUCACCAAGUCUGAGAGAUUAAGA,0.0801 ± 0.021
10,UACAGUGUCACCUUCUCUGAGACAUUAACA,0.257 ± 0.021
11,UAGUGACACACCUUCUCGAGAGAUUAACA,0.0137 ± 0.006
12,UAGUGUGUCACCUUCUCUGAUGAGAUUAACA,0.0106 ± 0.0054
13,UAGUGACUCACCUUCUGUGAGAGUUUAACA,0.0685 ± 0.0097
14,UAGUGAGACACCUUCUGUGAGAGAUUAACA,0.43 ± 0.03
15,UAGUGAGUAACCUUCUCUGAGAGAUUAACA,0.478 ± 0.034
16,UAGACUCUCACCUUCUCUGAGUGAUUAACA,0.0238 ± 0.0035
17,UAGUGAGUCACCUUGUCUGAGAGAAUAACA,0.00587 ± 0.0042
18,UAGUGACAGACCUAUCUCUGAGAGAUUAACA,0.0206 ± 0.0034
19,UAGUCUGUCACCAUCUCUGAGAGUUUAACA,0.223 ± 0.033
20,UUCACUGUCACCUUCUGAGAGAGAUUAUGA,0.0157 ± 0.0081
21,UAGUGUGUCACGUUCUCUGAGAGAAUAACA,0.19 ± 0.037
22,UUCACAGUCACCUUCUCUGAGAGAUUAUGA,0.103 ± 0.028
23,UAGUGACUCACCUUCUCUGAGAGAUUUAACA,0.224 ± 0.027
24,UAGUGACACUCCUUCUCUGAGUGAUUAACA,0.017 ± 0.004

row,Sequence,pre-steady-state target cleavage rate
1,AUCACUGACACCUUCUCUGAGAGAUUUACA,0.356 ± 0.06
2,UAGUGUGUCACCUUCUCUGAGAGAUUCAACA,0.288 ± 0.041
3,UACACUUCACCUUCUCUGAGAGAUUAACA,0.517 ± 0.031
4,UAGUGACACACCUUCUCUGAGUGAUUAUCA,0.00555 ± 0.0028
5,UAGUCUGUCACCUUCUGUGUGAGAUUAACA,0.091 ± 0.0073
6,UAGUCUGUGAGCUUCUCUGAGAGAUUAACA,0.294 ± 0.016
7,UACACUGUCACCUUGUCUGAGAGAUUUUGA,1.02 ± 0.24
8,UAGUCUGUCACCUUCUCUGAGAGCAUUAACA,0.394 ± 0.036
9,UAGUGAGUCACCUUCUCUGAGUCUUUAAGA,0.00546 ± 0.0039
10,UAGUCUGACAGCUUCUCUGAGAGAUUAACA,0.303 ± 0.029
11,UUCACUGUCACCUUCUCAGAGAGAUUAUGA,0.0684 ± 0.023
12,UAGACUGUCACCUUCUCCGAGAGAUUAACA,0.332 ± 0.052
13,UACACUGUCACGUUCUCUGAGAGAUUAAGA,0.124 ± 0.021
14,UACACUGUCACCUACUCUGAGAGAUUAACA,0.459 ± 0.029
15,UAGACUGUGUGCUUCUCUGAGAGAUUAAGA,0.00505 ± 0.0028
16,UAGACUGUCACCUUCUCUGUGAGAUAAACA,0.174 ± 0.015
17,UACACUGGCACCUUCUCUGAGAGAUUAACA,0.453 ± 0.12
18,UUCAGACUCACCUUCUCUGAGAGAUUUUGA,0.0132 ± 0.0032
19,UAGUGAGUCACGUUCUCUGAGUGAUUAACA,0.019 ± 0.0034
20,UACACUGUCACGUACUCUGAGAGAUUAACA,0.334 ± 0.032
21,UAGUGACACACCUUCUGUGAGAGUUUAACA,0.157 ± 0.025
22,UAGUGAGUCACCUUCUCUGACAGAUUAACA,0.388 ± 0.031
23,UAGACUGUCACCUUGUCUGAGAGAAUAACA,0.157 ± 0.051
24,UUCACUGUCACCUUCUGUGAGUGAUUAACA,0.0234 ± 0.0055
